# Assay results reported in the supplement of paper PMC12217912.
# Some of the results follow. The full chains were built here from the parent and the listed change. Inactive controls read about 0.05.
# B1: TEV protease; numbered along this chain (parent)
# chain: MGESLFKGPRDYNPISSSICHLTNESDGHTTSLYGIGFGPFIITNKHLFRRNNGTLVVQSLHGVFKVKDTTTLQQHLVDGRDMIIIRMPKDFPPFPQKLKFREPQREERICLVTTNFQTKSMSSMVSDTSCTFPSGDGIFWKHWIQTKDGQCGSPLVSTRDGFIVGIHSASNFTNTNNYFTSVPKNFMELLTNQEAQQWVSGWRLNADSVLWGGHKVFMVKPEEPFQPVKEATQL
# Variants of: B1
# Assay: raw area under fraction-flipped curve 0-4 h after induction (AUC4h, not background-subtracted), DNA-recorder readout of cleavage of the substrate (dimensionless); higher = more cleavage of the substrate by the protease variant
# Conditions: temperature: 34 °C; time window: 0-4 h after rhamnose induction
# Experimental: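 In vivo DNA recorder in E. coli TOP10(DE3) ΔrhaA at 34 °C. Each TEVp single-site mutant (parent TEVp 0) is paired with a single-site variant of the 7-mer TEVs (canonical ENLYFQ|S). The substrate sits between flexible linkers in a Bxb1-sfGFP-TEVs-SsrA fusion, so cleavage stabilises Bxb1 and speeds flipping of a recombination array, read by NGS. The value is the raw area under the fraction-flipped curve over 0-4 h after rhamnose induction (AUC4h), with ≥20 reads per time point. It is not background-subtracted; inactive controls average about 0.047.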
# 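Note: Bxb1 expression induced with 0.2% (w/v) L-rhamnose at OD600 near 0.5, cultures sampled hourly, flipped fraction per protease–substrate barcode pair counted by paired-end Illumina sequencing.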
Variant,area with substrate ENAYFQS,area with substrate ENIYFQS,area with substrate ENKYFQS,area with substrate ENSYFQS,area with substrate ENCYFQS,area with substrate ENDYFQS,area with substrate ENFYFQS,area with substrate ENGYFQS,area with substrate ENHYFQS,area with substrate ENMYFQS,area with substrate ENNYFQS,area with substrate ENPYFQS,area with substrate ENQYFQS,area with substrate ENRYFQS,area with substrate ENTYFQS,area with substrate ENVYFQS,area with substrate ENWYFQS,area with substrate ENYYFQS,area with substrate ENEYFQS
MGESLFKGPRDYNPISSSIGHLTNESDGHTTSLYGIGFGPFIITNKHLFRRNNGTLVVQSLHGVFKVKDTTTLQQHLVDGRDMIIIRMPKDFPPFPQKLKFREPQREERICLVTTNFQTKSMSSMVSDTSCTFPSGDGIFWKHWIQTKDGQCGSPLVSTRDGFIVGIHSASNFTNTNNYFTSVPKNFMELLTNQEAQQWVSGWRLNADSVLWGGHKVFMVKPEEPFQPVKEATQL [C20G],0.0394,0.0776,0.0491,0.0485,–,–,–,–,–,–,–,–,–,–,–,–,–,–,–
MGESLFKGPRDYNPISSSIDHLTNESDGHTTSLYGIGFGPFIITNKHLFRRNNGTLVVQSLHGVFKVKDTTTLQQHLVDGRDMIIIRMPKDFPPFPQKLKFREPQREERICLVTTNFQTKSMSSMVSDTSCTFPSGDGIFWKHWIQTKDGQCGSPLVSTRDGFIVGIHSASNFTNTNNYFTSVPKNFMELLTNQEAQQWVSGWRLNADSVLWGGHKVFMVKPEEPFQPVKEATQL [C20D],0.0489,0.0229,0.0753,0.0482,0.0439,0.0453,0.025,0.0406,0.0478,0.0495,0.0446,0.0315,0.0444,0.0407,0.0447,0.0379,0.0038,0.0393,–
MGESLFKGPRDYNPISSSISHLTNESDGHTTSLYGIGFGPFIITNKHLFRRNNGTLVVQSLHGVFKVKDTTTLQQHLVDGRDMIIIRMPKDFPPFPQKLKFREPQREERICLVTTNFQTKSMSSMVSDTSCTFPSGDGIFWKHWIQTKDGQCGSPLVSTRDGFIVGIHSASNFTNTNNYFTSVPKNFMELLTNQEAQQWVSGWRLNADSVLWGGHKVFMVKPEEPFQPVKEATQL [C20S],0.0366,–,0.0652,0.0551,0.0568,0.0686,–,0.0589,0.0619,–,0.0821,0.0647,0.0492,0.0429,0.0617,0.0589,0.0359,0.0346,0.0613
MGESLFKGPRDYNPISSSIHHLTNESDGHTTSLYGIGFGPFIITNKHLFRRNNGTLVVQSLHGVFKVKDTTTLQQHLVDGRDMIIIRMPKDFPPFPQKLKFREPQREERICLVTTNFQTKSMSSMVSDTSCTFPSGDGIFWKHWIQTKDGQCGSPLVSTRDGFIVGIHSASNFTNTNNYFTSVPKNFMELLTNQEAQQWVSGWRLNADSVLWGGHKVFMVKPEEPFQPVKEATQL [C20H],0.0424,–,0.0466,0.0438,0.0486,0.043,–,0.0457,0.0663,0.062,0.0582,–,0.0445,0.0779,0.0422,0.0383,0.0369,0.0465,–
MGESLFKGPRDYNPISNSICHLTNESDGHTTSLYGIGFGPFIITNKHLFRRNNGTLVVQSLHGVFKVKDTTTLQQHLVDGRDMIIIRMPKDFPPFPQKLKFREPQREERICLVTTNFQTKSMSSMVSDTSCTFPSGDGIFWKHWIQTKDGQCGSPLVSTRDGFIVGIHSASNFTNTNNYFTSVPKNFMELLTNQEAQQWVSGWRLNADSVLWGGHKVFMVKPEEPFQPVKEATQL [S17N],0.0425,–,0.0617,0.058,0.071,0.0485,0.0489,0.0408,0.0563,–,0.0593,0.0654,0.0616,0.0456,0.0372,–,0.0609,0.0522,0.0625
MGESLFKGPRDYNPISKSICHLTNESDGHTTSLYGIGFGPFIITNKHLFRRNNGTLVVQSLHGVFKVKDTTTLQQHLVDGRDMIIIRMPKDFPPFPQKLKFREPQREERICLVTTNFQTKSMSSMVSDTSCTFPSGDGIFWKHWIQTKDGQCGSPLVSTRDGFIVGIHSASNFTNTNNYFTSVPKNFMELLTNQEAQQWVSGWRLNADSVLWGGHKVFMVKPEEPFQPVKEATQL [S17K],0.0681,0.119,0.0599,0.0726,0.0653,0.0497,0.0638,0.0583,0.0268,0.0849,0.0484,0.0647,0.0621,–,0.0555,0.0741,0.0999,0.0603,0.0623
MGESLFKGPRDYNPISMSICHLTNESDGHTTSLYGIGFGPFIITNKHLFRRNNGTLVVQSLHGVFKVKDTTTLQQHLVDGRDMIIIRMPKDFPPFPQKLKFREPQREERICLVTTNFQTKSMSSMVSDTSCTFPSGDGIFWKHWIQTKDGQCGSPLVSTRDGFIVGIHSASNFTNTNNYFTSVPKNFMELLTNQEAQQWVSGWRLNADSVLWGGHKVFMVKPEEPFQPVKEATQL [S17M],0.0507,0.0984,0.063,0.0679,0.0594,0.0594,0.0599,0.0622,0.0584,0.0806,0.057,0.05,0.0344,0.0589,0.0671,0.0782,0.0629,–,0.0568
MGESLFKGPRDYNPISLSICHLTNESDGHTTSLYGIGFGPFIITNKHLFRRNNGTLVVQSLHGVFKVKDTTTLQQHLVDGRDMIIIRMPKDFPPFPQKLKFREPQREERICLVTTNFQTKSMSSMVSDTSCTFPSGDGIFWKHWIQTKDGQCGSPLVSTRDGFIVGIHSASNFTNTNNYFTSVPKNFMELLTNQEAQQWVSGWRLNADSVLWGGHKVFMVKPEEPFQPVKEATQL [S17L],0.0487,0.135,0.0521,0.059,0.0529,0.0838,0.0493,0.0483,–,0.0724,0.0641,0.0557,0.0581,0.0639,0.0518,0.0681,–,–,0.0577
MGESLFKGPRDYNPISESICHLTNESDGHTTSLYGIGFGPFIITNKHLFRRNNGTLVVQSLHGVFKVKDTTTLQQHLVDGRDMIIIRMPKDFPPFPQKLKFREPQREERICLVTTNFQTKSMSSMVSDTSCTFPSGDGIFWKHWIQTKDGQCGSPLVSTRDGFIVGIHSASNFTNTNNYFTSVPKNFMELLTNQEAQQWVSGWRLNADSVLWGGHKVFMVKPEEPFQPVKEATQL [S17E],0.0586,–,–,0.0585,0.0671,0.0632,0.0687,0.0714,0.0575,0.0815,0.0379,–,0.0523,0.0562,0.0731,0.0789,–,0.0589,–
